Experimental data reported in PubChem BioAssay AID493208 (National Center for Advancing Translational Sciences (NCATS), 2011).
Screen size: about 44,000 compounds; about 340 (0.77%) were called active. Not shown: some 5% with an inconclusive outcome. Calls follow the shape of the dose curve; as a rule, active = well fitted inhibition curve with a large enough effect; inconclusive = small, poorly fitted or top-dose-only effect; inactive = flat fitted curve, though single readings scatter. This is one part of the list.

assay: Acumen qHTS Assay for Inhibitors of the mTORC1 Signaling Pathway in MEF (Tsc2-/-, p53-/-) Cells: Sytravon; conditions: phospho-rpS6 immunofluorescence/PI, 24 h; series mostly up to 38.3 µM; activity change, negative = inhibition: at the top concentration;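 also: plate controls were DMSO for no effect and rapamycin for full effect; nearly all actives have a fitted effect of over 50% in size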
How it was run: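 Read-out: phospho-S6 Alexa-488 intensity over PI intensity per well, scored as % active cells using thresholds from rapamycin (7.5 nM) and DMSO controls. Tsc2-/-, p53-/- MEFs exposed to compound for 24 h; PI cell count recorded as viability.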

Structure (SMILES)	activity change, negative = inhibition
CCOC(=O)c1c(C)oc2nc(C)nc(NCc3ccccc3OC)c12	inactive: -2.69%
COc1ccccc1NC(=O)Cn1c(=O)n(CCCCCC(=O)NCc2ccccc2)c(=O)c2sccc21	inactive: -34.2%
CC(=O)Nc1ccc(S(=O)(=O)NC2(C(F)(F)F)NC(=O)N(CCc3ccc(F)cc3)C2=O)cc1 (stereo not given)	inactive: 12.5%
CCOc1cc(CNC(=O)Cn2c(-c3cccs3)cc3cc(F)ccc32)ccc1OC	inactive: -11.2%
Cc1ccc(-n2c(SCC(N)=O)nc3c(oc4ccccc43)c2=O)cc1C	inactive: -3.15%
Cc1ccc(C)c(N2CCN(Cc3csc(C)c3)CC2)c1	inactive: -16.7%
Cc1ccc(C)c(NC(=O)Cn2c(=O)n(Cc3ccccc3)c(=O)c3oc4ccccc4c32)c1	inactive: -1.98%
CCOCCCn1c(=N)c(C(=O)NCC2CCCO2)cc2c(=O)n3cccc(C)c3nc21 (stereo not given)	inactive: -4.74%
COC(=O)C1=C(c2ccccc2)c2ccccc2S(=O)(=O)N1CC(=O)Nc1ccccc1Cl	inactive: -1.6%
Cc1cccc(NS(=O)(=O)c2ccc3c(c2)CCN3C(=O)C2CCC2)c1	inactive: 2.74%
COC(=O)C1CCN(S(=O)(=O)c2cc3c4c(c2)CC(=O)N4CCC3)CC1	inactive: 0.749%
O=C(c1cccs1)N1CCCc2cc(NS(=O)(=O)c3ccc(F)cc3F)ccc21	inactive: 9.62%
CCCN(CCC)CCCNC(=O)Cn1cnc2sc(C)c(S(=O)(=O)N3CCC(C)CC3)c2c1=O	inactive: 7.54%
O=C(Nc1cccc(F)c1)c1ccc(-c2ccccc2)s1	inactive: -5.99%
Cc1ccc(S(=O)(=O)c2cn(Cc3ccccc3Cl)c3ccc(F)cc3c2=O)cc1	inactive: -0.925%
COc1ccc2c(c1)NC(c1cccnc1)=NC(c1ccc(F)cc1)=N2	inactive: 2.04%
COc1ccc(Br)cc1CNC(=O)c1ccc2c(c1)N(Cc1ccc(C)cc1)CCS2	inactive: -3.63%
Cc1ccc(CN2C(=O)c3ccccc3Sc3ccc(C(=O)OCc4ccco4)cc32)cc1	inactive: 0.168%
COCCNC(=O)CSc1nc(-c2ccccc2C)nc2c1c(=O)n(C)c(=O)n2C	inactive: 8.37%
COc1ccc(CCC(=O)NCCc2csc(-c3ccc(Cl)cc3)n2)cc1	inactive: 1.83%
NS(=O)(=O)c1ccc2nc(NC(=O)COc3ccccc3)sc2c1	inactive: 3.73%
CCCN(CCC)C(=O)c1cc2c(=O)n3cccc(C)c3nc2n1C	inactive: 3.59%
CN(Cc1ccco1)S(=O)(=O)c1nnc(NC(=O)c2cccc(Cl)c2)s1	inactive: -2.63%
Cc1ccc(NC(=O)c2nc(S(C)(=O)=O)ncc2N(Cc2ccco2)Cc2ccco2)cc1C	inactive: -0.365%

Structure (SMILES)	activity change, negative = inhibition
Cc1ccc(NC(=O)Cn2c(=O)oc3cc(S(=O)(=O)N4CCCCCC4)ccc32)cc1Cl	inactive: -0.199%
CC(C)C(NS(=O)(=O)c1ccc2c(c1)oc(=O)n2C)C(=O)NCCc1ccc(Cl)cc1 (stereo not given)	inactive: 1.12%
CCOc1ccc(Nc2c(S(=O)(=O)c3ccccc3)cnc3ccccc23)cc1	inactive: -1.31%
Cc1ccc2cccc(NC(=O)c3ccc(-c4cccc(Cl)c4)o3)c2n1	inactive: -3.08%
Cc1ccc(-c2nnc(Nc3ccc(S(N)(=O)=O)cc3)c3ccccc23)cc1S(=O)(=O)N1CCCCC1	inactive: 10.7%
CCOCCCNC(=O)C(c1ccc(Cl)cc1)N(Cc1cccs1)C(=O)c1ccc(NC(C)=O)cc1 (stereo not given)	inactive: -17%
Cc1ccc(NC(=O)CN2C(=O)C3(SCC(=O)N3c3ccc(F)c(F)c3)c3ccccc32)c(C)c1 (stereo not given)	inactive: -13.2%
CCC(=O)N1CCc2cc(Br)cc(S(=O)(=O)CCC(=O)N(CC)Cc3ccccc3)c21	inactive: 6.73%
CC(C)(Oc1ccc(Cl)cc1)C(=O)Nc1nc2ccc(S(C)(=O)=O)cc2s1	inactive: -0.38%
CN(C)c1ccc(C(CNC(=O)c2c(F)cccc2Cl)N2CCOCC2)cc1 (stereo not given)	inactive: 19.5%
CC(=O)N1CCc2cc(CNS(=O)(=O)c3ccc(Cl)s3)ccc21	inactive: 8.24%
COc1ccc(-n2c(=O)c3c4c(sc3n3c(SCCC(C)C)nnc23)COC(C(C)C)C4)cc1 (stereo not given)	inactive: 5.86%
COc1ccc(Cl)cc1NC(=O)NCC1CCN(Cc2ccccc2F)CC1	inactive: -15.9%
CCOc1ccc(OCC)c(NS(=O)(=O)c2cc(-c3onc(C)c3C)ccc2OC)c1	inactive: -9.1%
COc1cc(OC)cc(C(=O)Nc2ccc3oc(-c4cccc5c(Br)cccc45)nc3c2)c1	inactive: 6.49%
CN1C(=O)C2(SCC(=O)N2c2ccc(F)cc2)c2ccccc21 (stereo not given)	inactive: -3.71%
CCN1CCN(CCCNC(=O)c2ccc3nc(Cc4ccccc4)oc3c2)CC1	inactive: -0.929%
COc1ccc(N2CCN(C(=O)c3cc(S(=O)(=O)N4CCC(C)CC4)cn3C)CC2)cc1	inactive: 3.4%
CCN(C(=O)C1CCN(c2ncnc3c2nc2n3CCCCC2)CC1)c1cccc(Cl)c1	inactive: 1.22%
O=C(NCC(c1ccc2c(c1)OCO2)N1CCOCC1)c1c(F)cccc1F (stereo not given)	inactive: 1.55%
COc1ccc(-n2ccnc(NCc3ccc(C)cc3)c2=O)cc1OC	inactive: -2.52%
Cc1cccc(N2CCN(c3nc4ccc(C)cc4n4cnnc34)CC2C)c1 (stereo not given)	inactive: -3.91%
CCn1cc(C(=O)NCCc2ccc(Cl)cc2)c(=O)c2cc(S(=O)(=O)N3CCC(C)CC3)ccc21	inactive: -12.9%
O=C(c1ccc(F)cc1)n1nc(-c2ccccc2)nc1NCc1ccco1	inactive: 0.55%

Structure (SMILES)	activity change, negative = inhibition
O=C(NC1CCCCC1)c1ccc2c(c1)N(Cc1ccc(Cl)cc1)C(=O)c1ccccc1S2=O (stereo not given)	inactive: 0.385%
CCOc1ccccc1N(CC)C(=O)c1noc2c1COc1ccc(C)cc1-2	inactive: -1.31%
COc1ccc(N(CC(=O)N2CCN(c3ccccc3F)CC2)S(=O)(=O)c2c(C)n[nH]c2C)cc1	inactive: -3.8%
Cc1cccc(NC(=O)CCNS(=O)(=O)c2cccc3nsnc23)c1C	inactive: 8.5%
Cc1ccc(C)c(Cn2c(=O)cc(C)c3c(C)nn(C)c32)c1	inactive: -7.1%
CCn1c(C)c(C)c2cc(C(=O)NCc3cccc(C)c3)ccc21	inactive: 2.31%
Cc1cccc(C(=O)Nc2ccc(C(=O)OCc3cc(=O)n4nc(CC(C)C)sc4n3)cc2)c1	inactive: 4.51%
COc1ccc(NC(=O)/C=C\C(=O)N(c2ccc(C(C)C)cc2)C(C(=O)NCc2ccco2)c2ccc(F)cc2)cc1 (stereo not given)	inactive: 0.128%
O=C(c1ccccc1)N(Cc1ccco1)Cc1cccs1	inactive: 2.53%
COc1cccc(CNC(=O)CCc2c(C)c3cc4c(C)coc4c(C)c3oc2=O)c1	inactive: 2.04%
CCc1ccccc1NC(=O)CCS(=O)(=O)c1cccc2nonc12	inactive: 5.21%
COc1ccc(OCC(=O)N2CCN(C(=O)c3cccc(OC)c3)CC2)cc1	inactive: 3.69%
Cc1ccc(-n2ncc3c(N4CCN(C)CC4)ncnc32)cc1C	inactive: 11.1%
COc1ccccc1NC(=O)c1sc2nc(C)c(C(=O)Nc3ccc(C)cc3C)c(-c3ccc(C)o3)c2c1N	inactive: -1.43%
Cc1cccc(NC(=O)Cc2csc(COc3cccc(C)c3)n2)c1	inactive: -6.65%
Cc1cccc(C(=O)NCC(=O)OCc2cc(=O)n3nc(C4CC4)sc3n2)c1	inactive: 2.01%
CCOC(=O)Cn1c(=O)n(C2CCCCC2)c2nc(-c3cccc(OC)c3)nc(C(N)=O)c21	inactive: 8.2%
Cc1cc(C)cc(NC(=O)CCc2c(C)nc3c4cccnc4nn3c2C)c1	inactive: -0.479%
CCOc1ccc(S(=O)(=O)Nc2ccc(-c3ccc(OC)nn3)cc2)cc1	inactive: -0.624%
CCC(Sc1nc2nccnc2c(=O)n1Cc1ccc(C)cc1)C(=O)NC1CCCCC1 (stereo not given)	inactive: -13.8%
CCc1nn2c(=O)c(S(=O)(=O)Nc3cccc(F)c3)c(C)nc2s1	inactive: 0.981%
CCCNC(=O)N1CCN(S(=O)(=O)c2ccc3c(ccn3C)c2)CC1	inactive: -4.19%
COc1cc2c(c(OC)c1)C(c1cc(OC)c(OC)c(OC)c1)CC(=O)N2 (stereo not given)	inactive: -0.15%
Cc1c2cnn(-c3ccccc3)c(=O)c2c(C)n1CC(=O)NCc1ccccc1	inactive: -1.07%

Structure (SMILES)	activity change, negative = inhibition
Cc1cccc(-n2c(SCC(=O)c3ccccc3)nnc2-c2ccc(Br)cc2)c1	inactive: -0.43%
Cc1ccc(Cl)cc1NS(=O)(=O)c1cc2c3c(c1)CC(=O)N3CCC2	inactive: 3.45%
Cc1ccc(CNC(=O)Cn2c(=O)n(-c3cccc(Cl)c3)c(=O)c3sc4ccccc4c32)cc1	inactive: -5.39%
CCOC(=O)C1CCCN(S(=O)(=O)c2csc(C(N)=O)c2)C1 (stereo not given)	inactive: -0.533%
COc1ccccc1N1CCN(C(=O)c2cc3ccc4ccc(C)[nH]c4c3n2)CC1	inactive: 5.41%
CCOc1ccc(-c2cc3nc(C4CCN(C(=O)OC(C)(C)C)CC4)c(C(=O)Nc4ccc(C)cc4C)cn3n2)cc1	inactive: -12.4%
CC(CNC(=O)CCCn1c(=O)c2cccn2c2cccnc21)c1ccccc1 (stereo not given)	inactive: 1.22%
COc1cccc(CNC(=O)c2ccc(NC(=O)N3CC(C)Sc4ccccc43)cc2)c1 (stereo not given)	inactive: -1.14%
Cc1ccccc1Nc1c(-c2ccncc2)nc2ccc(Cl)cn12	inactive: 8.76%
COc1ccc(CCNC(=O)c2ccc(CNS(=O)(=O)c3ccccc3)cc2)cc1OC	inactive: -2.45%
COc1cc(NC(=O)c2ccc(NC(=O)N3CCSc4ncccc43)cc2)cc(OC)c1	inactive: -3.59%
CCOc1cccc2sc(N(CCN(CC)CC)C(=O)c3ccco3)nc12	inactive: 1.55%
CC(C)(C)OC(=O)N1CCC(c2c(C(=O)N3CCN(C(=O)c4ccco4)CC3)cnn2-c2ccccc2)CC1	inactive: 0.365%
Cc1cccc(CCNC(=O)C2CCCN(S(=O)(=O)c3ccc4c(c3)oc(=O)n4C)C2)c1 (stereo not given)	inactive: -4.18%
O=C(CSc1cn(CC(=O)N2CCCC2)c2ccccc12)Nc1cc(C(F)(F)F)ccc1Cl	inactive: -26.8%
CCC1CN(C(=O)Nc2ccc(C(=O)O)cc2)c2cc(Cl)ccc2O1 (stereo not given)	inactive: -7.23%
COc1cc(NC(=O)c2c(C)oc3ncnc(N4CCCCC4)c23)cc(OC)c1	inactive: -0.804%
Cc1ccc2c(c1)c(=O)c1ccccc1n2CCCC(=O)Nc1c(F)cccc1F	inactive: -5.29%
CN(Cc1ccccc1)C(=O)c1cn(C)c2ccc(S(=O)(=O)N(C)C3CCCCC3)cc2c1=O	inactive: -8.12%
CCCS(=O)(=O)c1nc(S(=O)(=O)c2ccc(C)cc2)c(NCc2ccccc2)s1	inactive: 0.787%
CCOc1ccc(NC(=O)CCS(=O)(=O)c2ccc(Br)cc2)cc1	inactive: 0.646%
COc1ccc(/C=C(/C#N)c2nc(-c3ccc(Br)cc3)cs2)cc1	inactive: -3.03%
Cc1cc(Br)ccc1NC(=O)C1CCN(S(=O)(=O)c2ccc(Br)s2)CC1	inactive: -3.04%
